Experimental findings from publication PMC4336329 (PLoS ONE, 2015) are described below.

Each structure is given as a SMILES string. Out of some 310,000 compounds screened, about 14,000 (4.5%) showed an effect of 50% or more. Effects have a minus sign here. Some of the results follow.
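Note: peak tail current of the secondary pulse compared with the same well before compound.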

Sequence of human ether-à-go-go-related gene (hERG) potassium channel (Q12809 whole entry, looked up): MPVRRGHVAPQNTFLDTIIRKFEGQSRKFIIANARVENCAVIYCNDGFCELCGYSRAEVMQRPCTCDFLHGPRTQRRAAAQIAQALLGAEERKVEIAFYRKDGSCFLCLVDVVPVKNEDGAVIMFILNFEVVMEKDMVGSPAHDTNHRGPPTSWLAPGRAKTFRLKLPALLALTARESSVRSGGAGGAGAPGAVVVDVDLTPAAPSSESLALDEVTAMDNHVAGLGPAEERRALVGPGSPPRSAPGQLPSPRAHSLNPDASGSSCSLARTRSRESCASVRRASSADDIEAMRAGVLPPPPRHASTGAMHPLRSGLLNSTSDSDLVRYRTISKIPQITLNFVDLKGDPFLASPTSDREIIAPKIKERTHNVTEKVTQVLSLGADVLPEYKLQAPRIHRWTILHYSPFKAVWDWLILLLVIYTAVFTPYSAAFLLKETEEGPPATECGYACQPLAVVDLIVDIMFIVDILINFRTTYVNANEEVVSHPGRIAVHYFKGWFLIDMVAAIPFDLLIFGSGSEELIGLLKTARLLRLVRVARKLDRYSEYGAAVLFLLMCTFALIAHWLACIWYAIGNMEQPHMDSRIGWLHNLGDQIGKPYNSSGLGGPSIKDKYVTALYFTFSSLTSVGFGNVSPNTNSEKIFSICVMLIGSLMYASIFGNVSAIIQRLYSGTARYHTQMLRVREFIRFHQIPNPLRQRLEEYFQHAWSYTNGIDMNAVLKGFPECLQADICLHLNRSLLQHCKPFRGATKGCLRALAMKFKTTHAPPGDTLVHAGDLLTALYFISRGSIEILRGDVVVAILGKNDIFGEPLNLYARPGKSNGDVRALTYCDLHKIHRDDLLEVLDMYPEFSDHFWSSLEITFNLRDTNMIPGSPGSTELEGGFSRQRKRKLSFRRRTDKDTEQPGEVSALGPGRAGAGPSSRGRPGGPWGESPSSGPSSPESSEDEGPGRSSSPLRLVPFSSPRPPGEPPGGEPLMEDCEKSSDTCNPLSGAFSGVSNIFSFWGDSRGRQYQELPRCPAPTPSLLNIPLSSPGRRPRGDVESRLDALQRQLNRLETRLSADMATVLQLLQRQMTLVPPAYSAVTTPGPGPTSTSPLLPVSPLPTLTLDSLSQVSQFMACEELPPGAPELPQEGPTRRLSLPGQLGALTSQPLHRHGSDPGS

This experiment has as its target human ether-à-go-go-related gene (hERG) potassium channel (human, UniProt Q12809). Kind of experiment: primary screen, population patch clamp on CHO cells stably expressing hERG.
For the molecule `O=C1NCCN1C(=O)N(c1ccccc1)c1ccccc1`, the “hERG current change (%, negative = inhibition) at 10uM” value is -0.646%.
In the case of `CCCS(=O)(=O)N1CCN(Cc2ccc(OCc3ccccc3)c(OC)c2)CC1.O=C(O)C(=O)O` it was -43.2%.
In the case of `CCN1C(c2ccc(F)cc2)=CS/C1=C(\C#N)c1nnc2n1-c1ccccc1SC2` it was -58.9%; in that of `CSC(=S)N/N=C/c1ccc(Br)cc1`, 19.9%.
As for `Cc1ccc(Cn2ccsc2=NC(=O)COC(=O)C(C)C)cc1`, the “hERG current change (%, negative = inhibition) at 10uM” value is recorded as -15.3%.
For `CC(C)(C)c1csc(NC(=O)c2ccc(Cl)s2)n1` the value was 5.11%; for `CC(=O)Oc1ccc(N(C(C)=O)S(=O)(=O)c2ccc3ccccc3c2)cc1`, 17.9%; for `CCc1nnc(NC(=O)Nc2ccc(Cl)cc2)s1`, 16.7%.
For `CCOC(=O)CCCCC(=O)c1[nH]c(=O)[nH]c1C[n+]1ccc(C)cc1.[Cl-]` the value was 17.5%; for `Cc1cc(N=Nc2ccccc2C(=O)O)c(C)c(C)c1O`, 26.4%.
In the case of `CN(C)S(=O)(=O)c1ccc(NC=C(C#N)C#N)cc1` it was 6.95%; in that of `O=C(O)C1C2C=CC(C3CC23)C1C(=O)O` (stereo not shown), 10.6%.
For the molecule `O=Cc1ccc(OCc2ccccn2)cc1`, the “hERG current change (%, negative = inhibition) at 10uM” value is given as 10.1%.
For `CCCCOc1ccc(C(=O)N/C(=C/C=C/c2ccccc2)C(=O)NCCCO)cc1` the value was -28.7%; for `COc1ccc(OC)c(C2C(C(=O)O)c3ccccc3C(=O)N2C)c1` (stereo not shown), 12.2%; for `Cc1ccccc1-n1c(O)c(/C=N/NC(=O)c2ccncc2)c(=O)[nH]c1=O`, 7.93%.
Turning to `COc1ccc(NS(=O)(=O)c2cc(NC(=O)c3sccc3C)ccc2N2CCOCC2)cc1`, the “hERG current change (%, negative = inhibition) at 10uM” value is recorded as 24.1%.
For `O=C(Nc1ccc2nn(-c3ccccc3)nc2c1)c1cccs1` the value was 0.462%; for `O=C(c1cccc(C(F)(F)F)c1)c1c[nH]c(C(=O)NCC2CCCO2)c1` (stereo not shown), -15.7%; for `Cc1ccc2c(c1)N(C(=O)CCC(=O)N1CCN(c3ccccc3)CC1)CCO2`, -43.8%.
In the case of `Cc1cc(NS(=O)(=O)c2ccc(-c3ccccc3)cc2)no1`, the “hERG current change (%, negative = inhibition) at 10uM” value is given as 0.855%.
In the case of `CCc1c(C)n([O-])c2c([n+]1=O)CCC2`, the “hERG current change (%, negative = inhibition) at 10uM” value stood at 13.1%.
For `COc1cc(Cl)c(CN2CCC(CO)(CCOc3ccccc3)CC2)cc1OC` the value was -80.7%.
For `C/C(=N/NC(=O)c1cnccn1)c1ccncc1` the value was 19.4%.
In the case of `O=C(Nc1ccc2c(c1)CCC2)c1ccc(F)cc1` it was 0.514%; in that of `Cc1ccc(N2CC(c3nc4ccccc4n3C)CC2=O)cc1C` (stereo not shown), -13.4%.
`Cc1noc(C)c1S(=O)(=O)Nc1ccccc1Oc1ccccc1`: the “hERG current change (%, negative = inhibition) at 10uM” value is recorded as -1.27%.
In the case of `CN(C)S(=O)(=O)c1ccc(S(=O)(=O)NCc2cccs2)cc1` it was -2.98%.
For `Cc1c(C=O)c(=O)n(-c2ccccc2)n1-c1ccccc1` the value was 14%; for `Cc1ncc(CO)c(/C=N/NC(=S)Nc2cccc(Cl)c2)c1O`, 18.9%.
For `COc1cc(OC)cc(C(=O)OC/C(O)=C(\C#N)c2nc3ccccc3[nH]2)c1` the value was -1.13%.
Take `Cc1ccc(CCNC(=O)Cc2ccc(NC3=NC4CS(=O)(=O)CC4S3)cc2)cc1` (stereo not shown): the “hERG current change (%, negative = inhibition) at 10uM” value is given as 17.8%.
For `COC(=O)c1ccccc1Oc1nc(Cl)cc(OC)n1` the value was -12.1%; for `Cn1ncc(Cl)c1C(=O)Nc1ccc2c(c1)OCO2`, 18.1%; for `CC1=C(C(=O)Nc2cc(C(=O)N3CCN(c4cccc(C)c4)C(C)C3)ccc2C)SCCO1` (stereo not shown), -12.5%.
For `Cc1cccc(C(=O)OCC(=O)Nc2c(C)nn(-c3ccccc3)c2C)c1O` the value was -16.7%.
In the case of `CC(/C=C/C=C/c1ccccc1)=N/NC(=O)C(O)c1ccccc1` (stereo not shown) it was -4.45%; in that of `Cc1cccc(-c2nnc(SCC(=O)Nc3cccc(C(=O)N4CCOCC4)c3)n2C)c1`, -5.45%; in that of `CNc1nc(C)c(C(C)=O)cc1C#N`, 14.6%.
As to `COc1ccc(-n2cnnc2SCC(=O)Nc2cccc([N+](=O)[O-])c2)cc1`, the “hERG current change (%, negative = inhibition) at 10uM” value amounted to 4.34%.
Consider `COC(/C=C/Nc1ccc(OC)cc1)=C(C#N)C#N`, for which the “hERG current change (%, negative = inhibition) at 10uM” value is listed as -59.9%.
In the case of `CCCCOC(=O)CSC1=C(C#N)C(c2ccccc2OC)C(C#N)C(=O)N1` (stereo not shown) it was 15.4%; in that of `COc1ncnc2c1sc1nc(-c3ccccc3)c3c(c12)CCCC3`, 15.6%.
